Two compounds from PubChem BioAssay (NCI) can be followed below.

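48-hour exposure; five concentrations; linearly interpolated endpoints. GI50: concentration for 50% inhibition of growth.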 Not every entry of the source has a single result; some have several. This list holds those alone. An entry can have further records. A record mostly stands for its own series of concentrations, which the source does not state; some values may only mark the edge of a range.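 TGI is the concentration that stops growth completely.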 Where only a bound is given, the exact number is not on record here.

Among the test systems are MOLT-4 leukemia; RPMI-8226 leukemia; LOX IMVI melanoma; NCI-H226 lung; COLO 205 colon; OVCAR-5 ovarian; UACC-62 melanoma; HS 578T breast; RXF 393 renal; MALME-3M melanoma; TK-10 renal; HCC-2998 colon; EKVX NSCLC; HT29 colon; HL-60(TB) leukemia; SNB-19 CNS; NCI-H522 lung.
Assay in all cases: NCI anticancer screen, dose series, 48 h

Consider `S=C(N/N=C(/c1ccccc1)c1ccccn1)N1CCCCC1`, for which the TGI in the assay with MOLT-4 leukemia was < 1 nM and 5.63 µM; in the assay on RPMI-8226 leukemia, 8.27 nM and 2.21 µM; in the assay on NCI-H226 lung, 141 nM and 2.17 µM; in the assay on COLO 205 colon, 5.28 nM and 5.11 µM. Also, the GI50 in the assay on LOX IMVI melanoma is 3.43 nM and 46 nM.

In the case of `CC(=O)O[C@@]12CO[C@@H]1C[C@H](O)[C@@]1(C)C(=O)[C@H](O)C3=C(C)[C@@H](OC(=O)[C@H](O)[C@@H](NC(=O)OC(C)(C)C)c4ccccc4)C[C@@](O)([C@@H](OC(=O)c4ccccc4)[C@H]21)C3(C)C`, the TGI with OVCAR-5 ovarian was 102 nM and 31.2 µM; in the assay with UACC-62 melanoma, 906 nM and > 52 µM; in the assay on HS 578T breast it was 13.3 nM and 72.4 µM; with RXF 393 renal, 95.6 nM and 3.3 µM; with TK-10 renal it was 600 nM and > 74.6 µM; with HCC-2998 colon, 789 nM and 26.2 nM. Further, the TGI is 458 nM and > 100 µM with EKVX NSCLC; 14.9 nM and 1.23 µM with HT29 colon; 51.8 nM, 26.6 nM, 1.15 µM in the assay with HL-60(TB) leukemia; 10.2 nM and > 100 µM in the assay on SNB-19 CNS; 57.5 nM and 1.93 nM with NCI-H522 lung. Moreover, in the assay on MALME-3M melanoma, the GI50 was 35.8 nM and 666 nM.
